Experimental data taken from PubChem BioAssay (Tox21).
“And” between values parts separate entries of the source, which are not always exact repeats. Equal values may be shown once. The inconclusive results got no clear call from the source; some entries with a clear call stand among them for comparison. For part of these data: Potencies beside an inconclusive call are fits to weak or partial responses and may not hold up. The source made the active and inactive calls. Unless noted, calls follow the shape of the dose curve; as a rule, active = well fitted curve in the direction sought with a large enough effect in the repeat runs; inconclusive = weak or mixed curves; inactive = no such curve, though single readings can be large; an effect the other way counts as inactive or inconclusive.

Experiments:
[1] = molecular target: Glucocorticoid receptor (Homo sapiens) (UniProt P04150); experiment: qHTS assay to identify small molecule antagonists of the glucocorticoid receptor (GR) signaling pathway (AID 720692; active = well fitted inhibition curve with a large enough effect in the signal ratio in the repeat runs, not every such curve was filed as active; inconclusive = weak or mixed curves, or effect the other way; inactive = no such curve, though single readings can be large or run the other way; the % refers to the signal ratio; also: potency is read from the fitted curve at half-maximal effect; as to activity change, negative = inhibition: % is scaled to controls: 0 for no effect and ±100 for the full control effect); conditions: GR-bla HeLa, beta-lactamase FRET ratio, dexamethasone-stimulated, 18 h
Sequence of UniProt P04150 (P04150 whole entry, looked up): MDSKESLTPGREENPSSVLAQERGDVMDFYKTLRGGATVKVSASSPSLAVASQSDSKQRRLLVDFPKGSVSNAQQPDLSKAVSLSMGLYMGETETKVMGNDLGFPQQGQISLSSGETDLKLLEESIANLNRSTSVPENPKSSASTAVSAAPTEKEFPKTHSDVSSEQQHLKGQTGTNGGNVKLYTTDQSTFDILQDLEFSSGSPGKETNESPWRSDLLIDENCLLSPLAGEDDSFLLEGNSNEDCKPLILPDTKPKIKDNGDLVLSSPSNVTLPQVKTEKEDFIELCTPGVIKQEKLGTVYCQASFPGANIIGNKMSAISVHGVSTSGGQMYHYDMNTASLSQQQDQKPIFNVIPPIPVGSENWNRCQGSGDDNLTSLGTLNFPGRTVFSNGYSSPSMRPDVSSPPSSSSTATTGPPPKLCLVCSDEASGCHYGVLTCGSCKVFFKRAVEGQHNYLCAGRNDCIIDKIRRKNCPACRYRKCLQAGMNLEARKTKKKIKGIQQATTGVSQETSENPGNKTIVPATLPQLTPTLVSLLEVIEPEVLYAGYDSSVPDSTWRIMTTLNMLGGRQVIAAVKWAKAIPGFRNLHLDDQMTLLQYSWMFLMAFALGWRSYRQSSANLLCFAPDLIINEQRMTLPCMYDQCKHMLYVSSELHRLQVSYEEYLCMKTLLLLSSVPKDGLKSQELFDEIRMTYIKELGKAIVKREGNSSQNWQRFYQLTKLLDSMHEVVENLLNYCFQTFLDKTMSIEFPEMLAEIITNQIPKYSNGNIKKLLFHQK
Outline: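 Quantitative HTS in antagonist format: HeLa cells expressing endogenous GR and a stably integrated GRE-bla reporter, stimulated with 5 nM dexamethasone (final) alongside test compounds for 18 h.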

[2] = molecular target: Peroxisome proliferator-activated receptor gamma (Homo sapiens) (UniProt P37231); experiment: qHTS assay to identify small molecule antagonists of the peroxisome proliferator-activated receptor gamma (PPARg) signaling pathway (AID 743191; calls by dose curve; also: % is scaled to controls: 0 for no effect and ±100 for the full control effect; nearly all actives have a fitted effect of over 30% in size); conditions: HEK293H PPARg-UAS-bla, beta-lactamase ratio, antagonist, 17 h; ratio activity, negative = inhibition: at 62.6 µM (top of the series) unless noted
Sequence of UniProt P37231 (P37231 whole entry, looked up): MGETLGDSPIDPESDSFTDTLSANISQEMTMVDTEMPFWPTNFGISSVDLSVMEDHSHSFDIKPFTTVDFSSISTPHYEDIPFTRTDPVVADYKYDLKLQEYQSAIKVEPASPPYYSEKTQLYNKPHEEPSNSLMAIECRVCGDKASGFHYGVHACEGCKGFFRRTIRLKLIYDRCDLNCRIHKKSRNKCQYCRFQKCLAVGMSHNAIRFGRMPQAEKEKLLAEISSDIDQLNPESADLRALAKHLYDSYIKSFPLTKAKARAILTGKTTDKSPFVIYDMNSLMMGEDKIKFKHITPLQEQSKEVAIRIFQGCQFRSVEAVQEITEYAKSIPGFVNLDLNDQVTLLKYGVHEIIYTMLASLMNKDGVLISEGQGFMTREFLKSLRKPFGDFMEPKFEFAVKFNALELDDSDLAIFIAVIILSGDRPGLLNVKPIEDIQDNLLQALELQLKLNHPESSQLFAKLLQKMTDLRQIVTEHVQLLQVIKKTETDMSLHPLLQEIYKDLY
Outline: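 GeneBLAzer PPARg UAS-bla HEK293H cells carrying a UAS-driven beta-lactamase reporter were plated at 3000 cells/well, preincubated 5 h at 37C, then given compound for 17 h at 37C; LiveBLAzer B/G FRET substrate was read after 1 h at room temperature.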

[3] = molecular target: Vitamin D3 receptor (Homo sapiens) (UniProt P11473); experiment: qHTS assay to identify small molecule antagonists of the vitamin D receptor (VDR) signaling pathway (AID 743223; active = well fitted inhibition curve with a large enough effect in the signal ratio in the repeat runs, not every such curve was filed as active; inconclusive = weak or mixed curves, or effect the other way; inactive = no such curve, though single readings can be large or run the other way; the % refers to the signal ratio; also: potency is read from the fitted curve at half-maximal effect); conditions: VDR-UAS-bla HEK293T, beta-lactamase FRET ratio, 16 h; activity change, negative = inhibition: at 61 µM (top of the series) unless noted
Sequence of UniProt P11473 (P11473 whole entry, looked up): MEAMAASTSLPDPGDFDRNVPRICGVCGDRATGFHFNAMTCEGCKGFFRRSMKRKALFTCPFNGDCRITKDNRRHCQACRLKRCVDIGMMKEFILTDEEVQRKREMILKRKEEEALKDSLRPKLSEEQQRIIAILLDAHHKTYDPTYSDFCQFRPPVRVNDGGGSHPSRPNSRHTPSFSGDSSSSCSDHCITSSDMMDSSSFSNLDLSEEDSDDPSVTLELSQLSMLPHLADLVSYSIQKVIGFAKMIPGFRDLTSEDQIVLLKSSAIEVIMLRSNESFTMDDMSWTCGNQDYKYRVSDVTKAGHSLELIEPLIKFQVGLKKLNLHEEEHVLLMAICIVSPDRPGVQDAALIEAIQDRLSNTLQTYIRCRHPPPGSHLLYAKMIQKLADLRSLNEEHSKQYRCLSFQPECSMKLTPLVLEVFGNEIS
Outline: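 Beta-lactamase reporter read-out: FRET substrate fluorescence after 2 h at room temperature, following 16 h exposure of VDR-bla cells to test compound plus 3 nM (final) 1alpha,25-dihydroxyvitamin D3 agonist at 37C.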

[4] = molecular target: Retinoic acid receptor RXR-alpha (Homo sapiens) (UniProt P19793); experiment: qHTS assay to identify small molecule agonists of the RXR signaling pathway (AID 1159527; calls by dose curve; also: nearly all actives have a fitted effect of over 35% in size; also: potency is read from the fitted curve at half-maximal effect; as to activation: % is scaled to controls: 0 for no effect and ±100 for the full control effect); conditions: HEK293T RXRa-UAS-bla, beta-lactamase ratio, 16 h; activation: at 76.8 µM (top of the series) unless noted
Sequence of UniProt P19793 (P19793 whole entry, looked up): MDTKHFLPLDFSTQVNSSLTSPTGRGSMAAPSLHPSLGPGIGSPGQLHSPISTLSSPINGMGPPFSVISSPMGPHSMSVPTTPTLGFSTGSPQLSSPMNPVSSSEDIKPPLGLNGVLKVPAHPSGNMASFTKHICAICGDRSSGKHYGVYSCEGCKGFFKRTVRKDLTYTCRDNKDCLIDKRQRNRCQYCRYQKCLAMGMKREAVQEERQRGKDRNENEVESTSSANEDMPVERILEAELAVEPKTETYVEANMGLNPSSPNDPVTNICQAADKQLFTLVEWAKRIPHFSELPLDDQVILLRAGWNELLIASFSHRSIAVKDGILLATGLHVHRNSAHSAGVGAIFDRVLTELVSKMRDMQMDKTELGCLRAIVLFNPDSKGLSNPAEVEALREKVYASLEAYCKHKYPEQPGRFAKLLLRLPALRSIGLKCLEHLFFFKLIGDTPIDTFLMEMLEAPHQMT
Outline: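 Agonist mode; 9-cis retinoic acid positive control. HEK 293T UAS-bla reporter cells, 2% charcoal-stripped FBS, 16 hr compound exposure at 37 C/5% CO2. LiveBLAzer B/G FRET substrate 2 hr RT; ex 405, em 460/530 nm.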

[5] = molecular target: Cytochrome P450 2C19 (Homo sapiens) (UniProt P33261); experiment: Cytochrome P450 Family 2 Subfamily C Member 19 (CYP2C19) small molecule antagonists: luciferase reporter qHTS assay (AID 1671197); also: nearly all actives have a fitted effect of over 65% in size; also: potency is read from the fitted curve at half-maximal effect; as to activity change, negative = inhibition: % is scaled to controls: 0 for no effect and ±100 for the full control effect
Sequence of UniProt P33261 (P33261 whole entry, looked up): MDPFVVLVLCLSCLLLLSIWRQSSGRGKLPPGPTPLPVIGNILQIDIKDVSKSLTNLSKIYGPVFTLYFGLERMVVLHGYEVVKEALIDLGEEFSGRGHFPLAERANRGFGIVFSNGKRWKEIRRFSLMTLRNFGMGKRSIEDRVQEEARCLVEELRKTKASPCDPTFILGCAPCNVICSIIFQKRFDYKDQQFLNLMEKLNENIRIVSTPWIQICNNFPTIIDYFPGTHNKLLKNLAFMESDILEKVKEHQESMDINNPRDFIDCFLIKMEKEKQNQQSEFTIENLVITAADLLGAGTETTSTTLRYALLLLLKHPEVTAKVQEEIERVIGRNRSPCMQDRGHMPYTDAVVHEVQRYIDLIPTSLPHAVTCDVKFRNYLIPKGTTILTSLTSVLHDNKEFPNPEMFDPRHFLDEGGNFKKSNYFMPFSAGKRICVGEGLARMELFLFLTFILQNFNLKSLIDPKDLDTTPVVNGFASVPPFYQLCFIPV
Outline: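 Quantitative high-throughput screen of the Tox21 library using CYP2C19 with proluciferin substrate. Reaction: NADPH regeneration, 37C, 1 h, after 10 min compound preincubation at room temperature. Readout: luminescence.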

[6] = qHTS assay for small molecule disruptors of the mitochondrial membrane potential (AID 720635); conditions: HepG2 mitochondrial membrane potential, Mito-MPS dye ratio; ratio activity, negative = MMP loss: at 83.2 µM (top of the series) unless noted; also: potency is read from the fitted curve at half-maximal effect
Outline: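 HepG2 cells (2,000/well) attached overnight at 37C, then took compound for 1 hr at 37C, 5% CO2. Mito-MPS dye was added for 30 min; fluorescence was read at 490/535 nm (monomers) and 540/590 nm (aggregates).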

[7] = qHTS assay for small molecule agonists of the antioxidant response element (ARE) signaling pathway (AID 743202; active = well fitted activation curve with a large enough effect in the signal ratio in the repeat runs, not every such curve was filed as active; inconclusive = weak or mixed curves, or effect the other way; inactive = no such curve, though single readings can be large or run the other way; the % refers to the signal ratio; also: % is scaled to controls: 0 for no effect and ±100 for the full control effect); conditions: HepG2 ARE-bla reporter, beta-lactamase FRET, 16 h; activation: at 73.3 µM (top of the series) unless noted
Outline: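 Steps: seed ARE-bla HepG2 cells (2,000/well); incubate 5 h at 37 C; add compounds by pin tool; incubate 16 h at 37 C; add FRET substrate; read fluorescence after 2 h at RT.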

[8] = qHTS assay to identify small molecule antagonists of the thyroid receptor (TR) signaling pathway - cell viability counter screen (AID 743064); conditions: GH3.TRE-Luc viability, CellTiter-Fluor, 24 h; activity change, negative = cytotoxic: at 70.3 µM (top of the series) unless noted; also: % is scaled to controls: 0 for no effect and ±100 for the full control effect; nearly all actives have a fitted effect of over 50% in size
Outline: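 GH3.TRE-Luc cells, 4 h pre-plating; cpd + T3 1 nM final; 37 °C 23.5 h; CellTiter-Fluor 30 min; fluorescence read.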

[9] = qHTS assay to identify small molecule agonists of the farnesoid-X-receptor (FXR) signaling pathway - cell viability counter screen (AID 743218); conditions: FXR-bla HEK293T viability, CellTiter-Glo luminescence, 16 h; viability change, negative = cytotoxic: at 62.6 µM (top of the series) unless noted; also: % is scaled to controls: 0 for no effect and ±100 for the full control effect; nearly all actives have a fitted effect of over 45% in size
Outline: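 Viability of FXR-bla HEK 293T cells is measured by ATP-based CellTiter-Glo luminescence following 16 h compound treatment at 37 C and a prior 2 h room-temperature beta-lactamase substrate step.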

[10] = qHTS assay to identify small molecule antagonists of the sonic hedgehog signaling (Shh) pathway (AID 1259369; calls by dose curve; also: nearly all actives have a fitted effect of over 45% in size; also: potency is read from the fitted curve at half-maximal effect)
Outline: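 Stable Gli1-Luc reporter NIH/3T3 clone; quantitative HTS in stimulated mode with conditioned medium. Luminescence measured after 24hr compound treatment at 37 C.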

[11] = molecular target: Cytochrome P450 2D6 (Homo sapiens) (UniProt P10635); experiment: Cytochrome P450 Family 2 Subfamily D Member 6 (CYP2D6) small molecule antagonists: luciferase reporter qHTS assay (AID 1671196); also: potency is read from the fitted curve at half-maximal effect; nearly all actives have a fitted effect of over 50% in size
Sequence of UniProt P10635 (P10635 whole entry, looked up): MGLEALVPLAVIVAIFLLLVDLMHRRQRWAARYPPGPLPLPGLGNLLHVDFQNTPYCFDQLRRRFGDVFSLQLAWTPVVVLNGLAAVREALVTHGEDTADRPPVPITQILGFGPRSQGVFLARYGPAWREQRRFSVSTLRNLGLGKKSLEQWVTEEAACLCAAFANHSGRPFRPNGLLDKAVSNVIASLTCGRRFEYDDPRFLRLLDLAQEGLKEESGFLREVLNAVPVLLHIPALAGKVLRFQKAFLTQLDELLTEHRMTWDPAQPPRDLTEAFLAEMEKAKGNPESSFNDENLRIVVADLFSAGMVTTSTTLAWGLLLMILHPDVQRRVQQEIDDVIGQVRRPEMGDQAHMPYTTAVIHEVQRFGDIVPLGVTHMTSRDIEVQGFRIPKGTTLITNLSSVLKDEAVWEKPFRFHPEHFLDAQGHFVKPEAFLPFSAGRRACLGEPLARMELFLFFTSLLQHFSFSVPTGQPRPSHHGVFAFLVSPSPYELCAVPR
Outline: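 Test chemicals meet CYP2D6 plus proluciferin substrate (10 min, RT); NADPH regenerating solution then drives turnover for 1 h. Detection reagent halts the reaction; luminescence measured after 20 min.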

[12] = molecular target: Cytochrome P450 2C9 (Homo sapiens) (UniProt P11712); experiment: Cytochrome P450 Family 2 Subfamily C Member 9 (CYP2C9) small molecule antagonists: luciferase reporter qHTS assay (AID 1671198); also: potency is read from the fitted curve at half-maximal effect; nearly all actives have a fitted effect of over 50% in size
Sequence of UniProt P11712 (P11712 whole entry, looked up): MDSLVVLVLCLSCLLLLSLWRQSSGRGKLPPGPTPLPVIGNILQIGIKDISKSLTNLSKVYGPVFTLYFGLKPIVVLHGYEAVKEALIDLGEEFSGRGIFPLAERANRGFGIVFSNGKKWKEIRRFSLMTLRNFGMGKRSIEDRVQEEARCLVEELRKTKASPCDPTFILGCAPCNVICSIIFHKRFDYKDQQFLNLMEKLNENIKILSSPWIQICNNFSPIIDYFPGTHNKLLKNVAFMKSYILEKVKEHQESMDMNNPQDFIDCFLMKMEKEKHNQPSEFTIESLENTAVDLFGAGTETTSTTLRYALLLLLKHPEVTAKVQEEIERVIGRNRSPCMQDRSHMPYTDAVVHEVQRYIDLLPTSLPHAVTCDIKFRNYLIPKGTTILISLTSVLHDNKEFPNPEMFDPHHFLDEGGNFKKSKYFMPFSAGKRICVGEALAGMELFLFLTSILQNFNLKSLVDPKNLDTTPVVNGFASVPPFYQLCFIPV
Outline: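 CYP2C9 activity was measured with a P450-Glo proluciferin substrate. Enzyme–substrate mix was held with compound for 10 min at room temperature, then NADPH regeneration solution was added for 1 h at 37C. Luciferin product was read as luminescence.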

[13] = qHTS assay for identifying genotoxic compounds that show differential cytotoxicity against isogenic chicken DT40 cell lines with known DNA damage response pathways - Rev3 mutant cell line (AID 743014); conditions: chicken DT40 Rev3-/- viability, CellTiter-Glo, 40 h; activity, negative = cytotoxicity: at 68.4 µM (top of the series) unless noted; also: nearly all actives have a fitted effect of over 55% in size; also: potency is read from the fitted curve at half-maximal effect
[14] = qHTS assay to identify small molecule antagonists of the progesterone receptor (PR) signaling pathway - cell viability counter screen (AID 1346798); also: potency is read from the fitted curve at half-maximal effect; nearly all actives have a fitted effect of over 50% in size
Outline: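 Luminescence readout (CellTiter-Glo, 30 min, RT) of viability in PR-UAS-bla HEK293T cells exposed to compound and R5020 agonist for 16 hr at 37C, 5% CO2; run in the same wells as the beta-lactamase reporter read.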

[15] = qHTS assay to identify small molecule agonists of the progesterone receptor (PR) signaling pathway - cell viability counter screen (AID 1346799; calls by dose curve; also: potency is read from the fitted curve at half-maximal effect; nearly all actives have a fitted effect of over 45% in size)
Outline: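 HEK293T PR-UAS-bla, 3,000 cells/well, 2% charcoal-stripped FBS; 6 h settle, compound 16 h at 37C/5% CO2; LiveBLAzer 2 h RT, then CellTiter-Glo 30 min RT, luminescence read.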

[16] = qHTS assay for small molecule agonists of the p53 signaling pathway (AID 651631; calls by dose curve; also: % is scaled to controls: 0 for no effect and ±100 for the full control effect; nearly all actives have a fitted effect of over 15% in size); conditions: HCT-116 p53RE-bla reporter, beta-lactamase FRET ratio, 16 h; activation: at 73.3 µM (top of the series) unless noted
Outline: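 p53RE-bla HCT-116 cells; compounds 16 h, 37 °C; LiveBLAzer B/G FRET substrate 2 h RT; fluorescence intensity read-out, qHTS format.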

[17] = qHTS assay to identify small molecule antagonists of the peroxisome proliferator-activated receptor delta (PPARd) signaling pathway - cell viability counter screen (AID 743213); conditions: PPARd-bla HEK293H viability, CellTiter-Glo luminescence, 17 h; viability change, negative = cytotoxic: at 62 µM (top of the series) unless noted
Outline: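 Agonist-stimulated (L165041, 300 nM final) HEK293H PPARd UAS-bla cells are exposed to compounds for 17 h at 37 C, and ATP-based luminescence (CellTiter-Glo) from the same wells reports cytotoxicity.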

[18] = molecular target: Cytochrome P450 1A2 (Homo sapiens) (UniProt P05177); experiment: Cytochrome P450 Family 1 Subfamily A Member 2 (CYP1A2) small molecule antagonists: luciferase reporter qHTS assay (AID 1671199)
Sequence of UniProt P05177 (P05177 whole entry, looked up): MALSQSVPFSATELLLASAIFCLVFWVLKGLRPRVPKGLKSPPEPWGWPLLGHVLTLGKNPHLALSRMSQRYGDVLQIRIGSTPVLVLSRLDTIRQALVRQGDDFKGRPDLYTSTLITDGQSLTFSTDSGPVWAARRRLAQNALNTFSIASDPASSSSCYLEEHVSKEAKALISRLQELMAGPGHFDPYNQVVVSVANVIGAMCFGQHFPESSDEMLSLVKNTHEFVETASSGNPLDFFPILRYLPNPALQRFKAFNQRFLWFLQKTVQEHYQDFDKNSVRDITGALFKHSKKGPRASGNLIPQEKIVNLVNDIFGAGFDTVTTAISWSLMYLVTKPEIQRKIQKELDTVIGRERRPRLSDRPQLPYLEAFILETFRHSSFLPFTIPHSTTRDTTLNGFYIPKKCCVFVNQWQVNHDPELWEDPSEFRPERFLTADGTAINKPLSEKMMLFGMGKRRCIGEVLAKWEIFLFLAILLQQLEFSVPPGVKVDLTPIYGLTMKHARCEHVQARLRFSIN
Outline: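 Steps: enzyme-substrate mix dispensed; test compounds and furafylline control pinned in; 10 min room temperature; NADPH regeneration solution added, 1 h; reaction stopped with luciferin detection reagent; luminescence read after 20 min.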

[19] = activity change, negative = inhibition: at 58.5 µM (top of the series) unless noted
Tags tell the direction and shape of the fitted curve or compound fluorescence and quenching.

In the case of Nc1ccc(S(=O)(=O)Nc2ccccn2)cc1, the Potency [1, 19] is reported as “inactive”, the ratio activity, negative = inhibition [2] is reported as inconclusive: 18% and the Potency [3] is reported as inconclusive: 10.7 µM [activator, partial curve, poor fit]. For the same compound, the Potency [4] was “inactive” and the Potency [5] was “inactive”.

For CCOc1ccccc1O, the Potency [6] was “inactive”, the ratio activity, negative = inhibition [2] was inconclusive: 17.2% and the Potency [7] was “inactive”. The activity change, negative = inhibition [3] was inconclusive: -22%, the activation [4] was inconclusive: 7.71% and the Potency [5] was “inactive”.

For CCCCN(CCCC)CCCC, the activity change, negative = inhibition [1, 19] was inconclusive: 17.8%, the activity change, negative = inhibition ([1]; at 58.5 µM (top of the series)) was inactive: 0.374% and the Potency [8] was “inactive”. For the same compound, the Potency [9] was “inactive”, the activity change, negative = inhibition [3] was inconclusive: -8.41% and the Potency [4] was inconclusive: 24.5 µM [activator]. The Potency [10] was “inactive”, the Potency [11] was inconclusive: 39.8 µM [inhibitor, partial curve] and the Potency [5] was inconclusive: 79.5 µM [inhibitor, single point] and inconclusive: 89.4 µM [inhibitor, single point]. The Potency [12] was inconclusive: 44.7 µM [inhibitor, partial curve] and active: 89.4 µM.

With CC(O)CN (stereo unspecified) the ratio activity, negative = MMP loss [6] was inconclusive: 20.7%, the ratio activity, negative = inhibition [2] was inconclusive: 13.8% and the Potency [7] was “inactive”. The activation [4] was inconclusive: 0.745%.

For CC(=O)O[C@@]12CO[C@@H]1C[C@H](O)[C@@]1(C)C(=O)[C@H](O)C3=C(C)[C@@H](OC(=O)[C@H](O)[C@@H](NC(=O)OC(C)(C)C)c4ccccc4)C[C@@](O)([C@@H](OC(=O)c4ccccc4)[C@H]21)C3(C)C, the Potency [6] was inconclusive: 59.6 nM [inhibitor, full curve, poor fit] and inconclusive: 1.5 µM [inhibitor, partial curve], the Potency [1, 19] was active: 10.7 µM and the activity change, negative = inhibition [1, 19] was inconclusive: -35%. For the same compound, the Potency [13] was active: 1.7 nM and active: 1.9 nM, the activation [7] was inconclusive: -0.779% and the Potency [3] was inconclusive: 0.0085 µM [inhibitor, full curve]. For the same compound, the Potency [4] was “inactive”, the Potency [10] was inconclusive: 0.003 µM [inhibitor, full curve, poor fit] and the Potency [14] was inconclusive: 4.22 µM [rising, partial curve, poor fit]. For the same compound, the Potency [15] was inconclusive: 0.0376 µM [rising, full curve].

For CC(C)(C)NC[C@H](O)COc1cccc2c1CCCC2=O, the Potency [16] was “inactive”, the Potency [6] was “inactive” and the Potency [13] was “inactive”. The Potency [8] was “inactive”, the Potency [9] was “inactive” and the Potency [4] was “inactive”. For the same compound, the Potency [10] was inconclusive: 0.668 µM [inhibitor, single point] and the Potency [11] was inconclusive: 30.9 µM [inhibitor, partial curve].

In the case of CC1(C)SC(C)(C)SC(C)(C)S1, the Potency [6] is reported as “inactive”, the Potency [8] is reported as “inactive” and the ratio activity, negative = inhibition [2] is reported as inconclusive: -12.1%. The Potency [7] was “inactive”, the Potency [17] was “inactive” and the Potency [3] was inconclusive: 0.123 µM [activator, partial curve, poor fit]. For the same compound, the Potency [4] was “inactive” and the Potency [18] was “inactive”.
